The other results are listed elsewhere or left out.
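Note: jurkat cells carrying a lentiviral library of mutant zinc finger degrons fused to EGFP plus mCherry, mCherry+ cells FACS sorted, degron abundance counted by next-generation sequencing.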

In the assay the target is no compound (DMSO). As to the kind of experiment: log2 fold change of degron read counts, EGFP-low vs EGFP+ sorted cells; higher = lower degron-EGFP level without compound (poor expression or instability). As to conditions: compound: DMSO control; 18 h.
For FACEICGAPFTQKGNLLRHIKL, the “log2 fold change of degron read counts” value is -0.552.

Take FLCPICGHHFTQKGNLLRHIKL: the “log2 fold change of degron read counts” value amounted to 0.0486.

Take FKCNQCGAYFTQKGNLLRHIKL: the “log2 fold change of degron read counts” value was -0.76.

Take LICPICGFMCTQKGNLLRHIKL: the “log2 fold change of degron read counts” value stood at 1.4.

Take FGCPQCGAWFTQKGNLLRHIKL: the “log2 fold change of degron read counts” value came out at 0.276.

As for FFCPQCGAIFTQKGNLLRHIKL, the “log2 fold change of degron read counts” value was determined as 1.28.

Turning to FLCNQCGHRFTQKGNLLRHIKL, the “log2 fold change of degron read counts” value was -0.311.

As to LQCNQCGFVCTQKGNLLRHIKL, the “log2 fold change of degron read counts” value was found to be 0.215.

Consider FQCNQCGRCFTQKGNLLRHIKL, for which the “log2 fold change of degron read counts” value is -1.02.

Turning to FNCNQCGAFFTQKGNLLRHIKL, the “log2 fold change of degron read counts” value amounted to 0.7.

As for FHCEVCGAFFTQKGNLLRHIKL, the “log2 fold change of degron read counts” value stood at 0.0174.

On to FKCEQCGAMFTQKGNLLRHIKL, for which the “log2 fold change of degron read counts” value was -2.67.

As for FNCNQCGALFTQKGNLLRHIKL, the “log2 fold change of degron read counts” value was 0.253.

As for FSCEVCGAMFTQKGNLLRHIKL, the “log2 fold change of degron read counts” value is -1.52.

Turning to FVCDICGACFTQKGNLLRHIKL, the “log2 fold change of degron read counts” value is -1.83.

As for FACEICGREFTQKGNLLRHIKL, the “log2 fold change of degron read counts” value is -2.62.

Consider FYCDICGAEFTQKGNLLRHIKL, for which the “log2 fold change of degron read counts” value was -2.15.

With FMCPICGACFTQKGNLLRHIKL, the “log2 fold change of degron read counts” value is -0.393.

For the sequence LECPICGFECTQKGNLLRHIKL, the “log2 fold change of degron read counts” value is -0.204.

In the case of FYCEVCGAEFTQKGNLLRHIKL, the “log2 fold change of degron read counts” value was -1.84.

For the sequence FLCDICGANFTQKGNLLRHIKL, the “log2 fold change of degron read counts” value was -0.796.

With FNCNICGAAFTQKGNLLRHIKL, the “log2 fold change of degron read counts” value is -0.982.

On to FYCEICGACFTQKGNLLRHIKL, for which the “log2 fold change of degron read counts” value is -1.05.

On to FYCEICGHFFTQKGNLLRHIKL, for which the “log2 fold change of degron read counts” value turned out to be 0.363.

Take FNCDVCGAEFTQKGNLLRHIKL: the “log2 fold change of degron read counts” value was -2.05.

Take FDCNQCGHAFTQKGNLLRHIKL: the “log2 fold change of degron read counts” value turned out to be 0.279.

In the case of FDCEICGREFTQKGNLLRHIKL, the “log2 fold change of degron read counts” value is -1.03.

Regarding FFCPICGAIFTQKGNLLRHIKL, the “log2 fold change of degron read counts” value was found to be 0.929.

As to FTCEVCGACFTQKGNLLRHIKL, the “log2 fold change of degron read counts” value was -1.38.

For FDCDQCGAMFTQKGNLLRHIKL, the “log2 fold change of degron read counts” value is -0.0848.

FECNVCGAWFTQKGNLLRHIKL: the “log2 fold change of degron read counts” value is -0.81.

On to FKCNICGAVFTQKGNLLRHIKL, for which the “log2 fold change of degron read counts” value is -0.629.

On to FWCPICGHHFTQKGNLLRHIKL, for which the “log2 fold change of degron read counts” value worked out at 1.34.

FHCEQCGACFTQKGNLLRHIKL: the “log2 fold change of degron read counts” value is -1.47.

On to FSCSVCGHLFTQKGNLLRHIKL, for which the “log2 fold change of degron read counts” value is 0.309.

As for FTCEICGAKFTQKGNLLRHIKL, the “log2 fold change of degron read counts” value is -1.54.

As to LWCPICGFYCTQKGNLLRHIKL, the “log2 fold change of degron read counts” value came to 3.49.

As to FTCEQCGAHFTQKGNLLRHIKL, the “log2 fold change of degron read counts” value is -1.16.

As for FTCPVCGALFTQKGNLLRHIKL, the “log2 fold change of degron read counts” value was -0.191.

On to FDCEICGHVFTQKGNLLRHIKL, for which the “log2 fold change of degron read counts” value is -0.33.

Turning to LMCPICGFCCTQKGNLLRHIKL, the “log2 fold change of degron read counts” value is 1.14.

For the sequence FECDVCGAIFTQKGNLLRHIKL, the “log2 fold change of degron read counts” value was -0.828.

In the case of FQCEICGHEFTQKGNLLRHIKL, the “log2 fold change of degron read counts” value is -2.3.

As to FVCPVCGAWFTQKGNLLRHIKL, the “log2 fold change of degron read counts” value turned out to be 0.977.

As for FRCNVCGACFTQKGNLLRHIKL, the “log2 fold change of degron read counts” value is 0.0111.

As for LECEICGFMCTQKGNLLRHIKL, the “log2 fold change of degron read counts” value was -0.804.

Take FECDQCGAKFTQKGNLLRHIKL: the “log2 fold change of degron read counts” value is -3.01.

Consider FYCPVCGASFTQKGNLLRHIKL, for which the “log2 fold change of degron read counts” value is -0.226.

For the sequence FQCDQCGANFTQKGNLLRHIKL, the “log2 fold change of degron read counts” value was -2.28.

With FICPQCGACFTQKGNLLRHIKL, the “log2 fold change of degron read counts” value is -0.0459.
